# The campaign covered roughly 280,000 compounds. About 100 (0.036%) were called active. Inconclusive results, whose numbers are uncertain, are shown with a selection of clear calls. Calls come from the whole dose curve; as a rule, active = well fitted inhibition curve with a large enough effect in the signal ratio, with a control signal flat (not every such curve was filed as active); inconclusive = small, poorly fitted or top-dose-only effect, or effect the other way, or a change in a side signal; inactive = no such curve, though single readings can be large or run the other way; the % refers to the signal ratio. Potencies of inconclusive entries are doubtful fits and often do not repeat. A note “side channel” means that the fit belongs to a control or component signal, not to the main read-out.
# Biological target: Muscleblind-like protein 1 (Homo sapiens) (UniProt Q9NR56)
# Experiment: qHTS Assay for Inhibitors of MBNL1-poly(CUG) RNA binding
# Settings: TR-FRET MBNL1-His/biotin-(CUG)12 binding, 665/545 ratio; activity change, negative = inhibition: at 57.5 µM (top of the series)
# Outline: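 Compounds (final 92 nM to 58 uM) are added to His-tagged MBNL1 and biotin-(CUG)12, then terbium anti-His antibody and streptavidin-XL665 (5 nM final). After 60 min at room temperature, the 665/545 nm ratio is read.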
# % is set by controls: 0 for no effect and ±100 for the full control effect; potency is the fitted concentration of half-maximal effect; tags give direction and shape of the fitted curve or compound fluorescence and quenching.
# Chain of UniProt Q9NR56 (Q9NR56 whole entry, looked up): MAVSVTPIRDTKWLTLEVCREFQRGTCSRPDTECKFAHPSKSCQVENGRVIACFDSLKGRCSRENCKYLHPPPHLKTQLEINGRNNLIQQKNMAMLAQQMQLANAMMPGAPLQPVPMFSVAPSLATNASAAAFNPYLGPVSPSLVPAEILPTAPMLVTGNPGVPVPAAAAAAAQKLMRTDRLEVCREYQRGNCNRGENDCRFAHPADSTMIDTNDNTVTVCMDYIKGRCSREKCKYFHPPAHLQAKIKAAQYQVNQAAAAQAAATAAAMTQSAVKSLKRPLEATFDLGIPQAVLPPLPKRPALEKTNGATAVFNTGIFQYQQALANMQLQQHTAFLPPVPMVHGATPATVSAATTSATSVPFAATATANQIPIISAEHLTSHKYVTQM
SMILES,"activity change, negative = inhibition",Potency
CC1CCN(C(=O)c2ccc(NS(=O)(=O)c3cccc4cccnc34)cc2)CC1,inactive: 3.76%,
CC1CCCN(CCOCCOc2ccc(Cl)cc2Br)C1 (stereo not given),inactive: -0.616%,
Cc1nn(C)c(C)c1CNC(=O)c1cc2n(n1)C(C(F)(F)F)CC(c1cccs1)N2 (stereo not given),inactive: 4.18%,
Cc1nc(NNC(=O)c2ccc([N+](=O)[O-])cc2)cc(-c2ccccc2)n1,,"inconclusive: 15.8 µM [quencher, side channel, partial curve]"
COC(/C(=N/O)c1ccc(Cl)cc1)c1ccccc1 (stereo not given),inactive: -0.121%,
COCCn1c(=N)c(C(=O)NCc2ccco2)cc2c(=O)n3ccccc3nc21,,"inconclusive: 7.94 µM [quencher, side channel, full curve]"
COc1ccc2cc(C(=O)/C=C/c3cc(OC)c(O)c(OC)c3)ccc2c1,,"inconclusive: 22.4 µM [quencher, side channel, single point]"
Cc1cccc(OCC(=O)N/N=C\c2cc3c(cc2[N+](=O)[O-])OCO3)c1C,,"inconclusive: 31.6 µM [quencher, side channel, partial curve]"
COc1cc(/C=C2/NC(=O)NC2=O)cc(Br)c1OCc1ccc(C(=O)O)cc1,,"inconclusive: 15.8 µM [quencher, side channel, partial curve]"
O=C(NC(=S)Nc1cccc(NC(=O)c2ccccc2Cl)c1)c1cccs1,,"inconclusive: 1 µM [fluorescent, side channel, full curve, poor fit]"
Nc1cccc(-c2nc3cc(S(=O)(=O)c4ccc5oc(-c6cccc(N)c6)nc5c4)ccc3o2)c1,inactive: -0.0543%,
COc1ccc(-n2c(=O)/c(=C\c3cccs3)s/c2=C(/C#N)C(=O)N2CCN(C)CC2)cc1,,"inconclusive: 3.16 µM [quencher, side channel, full curve]"
O=C(NCCCn1ccnc1)Nc1cccc2ccccc12,inactive: 11.6%,
COc1ccc(OC)c(Nc2ccc(Nc3cc(OC)ccc3OC)nn2)c1,,"inconclusive: 15.8 µM [activator, partial curve, poor fit]"
COc1ccc(C(=O)Nc2ccccc2C(=O)NC(C(=O)NCc2ccco2)C(C)C)cc1 (stereo not given),inactive: -6.46%,
COc1ccc(/C=C/c2nc3ccccc3n2C)cc1,,"inconclusive: 25.1 µM [quencher, side channel, single point]"
N#C/C(=C\c1ccc(-c2ccccc2C(=O)O)o1)c1nc2ccccc2[nH]1,inactive: 6.2%,
Cc1ccc(-c2[nH]nc3c2C(c2ccc(OC(=O)N4CCOCC4)cc2)C(C#N)=C(N)O3)cc1 (stereo not given),,"inconclusive: 20 µM [quencher, side channel, single point]"
COc1ccccc1N1CCN(Cc2nc(N)nc(Nc3ccccc3)n2)CC1,inactive: 7.28%,
COCCNC(=O)C1CCN(S(=O)(=O)c2c(C)noc2/C=C/c2cccs2)CC1,,"inconclusive: 28.2 µM [quencher, side channel, partial curve]"
O=C(NNc1ncnc2sccc12)c1ccc(Cl)cc1,inactive: -2.4%,
CCCc1cc(C(=O)Nc2ccc(OC)cc2[N+](=O)[O-])cs1,,"inconclusive: 28.2 µM [quencher, side channel, partial curve]"

SMILES,"activity change, negative = inhibition",Potency
CCOC(=O)Cc1nnc(NC(=O)CSc2ncc(-c3ccccc3)nn2)s1,,"inconclusive: 12.6 µM [quencher, side channel, partial curve]"
CCCCCCN1C=CC=C/C1=C\C=C(C#N)C#N,,"inconclusive: 20 µM [quencher, side channel, partial curve]"
Cc1c(NC(=O)/C(C#N)=C/c2ccc(-c3ccc(Cl)cc3)o2)c(=O)n(-c2ccccc2)n1C,,"inconclusive: 10 µM [quencher, side channel, partial curve, poor fit]"
Cc1coc2c1C(=O)C(=O)c1c-2ccc2c1CCCC2(C)C,,"inconclusive: 22.4 µM [quencher, side channel, single point]"
Cn1c(/N=C/c2c(O)ccc3ccccc23)nc2ccccc21,inconclusive: 41.6% [activator],
CCC(C)(C)NC(=S)Nc1ccccc1C,inactive: -5.62%,
Clc1ccc(Nc2ccc(NCc3ccccc3)nn2)cc1,,"inconclusive: 39.8 µM [quencher, side channel, single point]"
O=C(c1ccc([N+](=O)[O-])cc1)N(Cc1ccccc1)c1ccccn1,,"inconclusive: 5.01 µM [quencher, side channel, partial curve]"
Cc1cccc(C)c1NC(=O)COC(=O)c1cc(-c2cccnc2)nc2ccccc12,,"inconclusive: 14.1 µM [quencher, side channel, partial curve]"
CC(=O)C1=C(C)NC(C)=C(C(C)=O)C1c1ccccc1,,"inconclusive: 35.5 µM [quencher, side channel, single point]"
O=C(Cn1nnc(-c2ccc(F)cc2)n1)N1CCCCC1,inactive: -3.2%,
CCCCN1CCc2[nH]c(=S)[nH]c(=O)c2C1,,"inconclusive: 1 µM [inhibitor, full curve]"
Cc1ccccc1NC(=O)CN1C(=O)c2cccnc2Oc2ccc(Cl)cc21,inactive: -10.4%,
C=CCn1c(-c2cccs2)nc2ccccc21,inactive: 14.2%,
Cc1ccc(CC(=O)N2CCN(c3ccc([N+](=O)[O-])cc3)CC2)cc1,,"inconclusive: 2 µM [quencher, side channel, partial curve]"
CCCCC(=O)NC(c1ccccc1)c1ccc2cccnc2c1O (stereo not given),inactive: 33.4%,
CCCCS(=O)(=O)C1CCS(=O)(=O)C1 (stereo not given),,"inconclusive: 63.1 µM [inhibitor, single point]"
CCOC(=O)C1=C(O)c2ccccc2C(=O)/C1=C\c1ccc(C)cc1,,"inconclusive: 35.5 µM [quencher, side channel, partial curve]"
Cc1onc(C(=O)NCc2ccc(F)cc2)c1[N+](=O)[O-],,"inconclusive: 10 µM [quencher, side channel, partial curve]"
CCN(CC)C(=O)C(Oc1ccc(S(=O)(=O)N2CCCC2)cc1[N+](=O)[O-])c1ccccc1 (stereo not given),,"inconclusive: 35.5 µM [quencher, side channel, single point]"
CC(=O)c1cccc(NC(=S)NC(=O)c2ccccc2Br)c1,inactive: -7.15%,
CCOC(=O)c1c(NC(=O)C2C3C=CC(C3)C2C(=O)O)sc2c1CC(C)CC2 (stereo not given),,"inconclusive: 39.8 µM [fluorescent, side channel, single point]"

SMILES,"activity change, negative = inhibition",Potency
CCCN(CCC)CCCNC(=O)C1CCC(CNS(=O)(=O)c2cccc3nsnc23)CC1 (stereo not given),,"inconclusive: 14.1 µM [quencher, partial curve]"
CC(C)c1ccc(CNn2cnnc2)cc1,inactive: -5.17%,
Cc1cc(C)c2c(c1)-c1c(ssc1=S)C(C)(C)N2C(=O)CSc1nncn1C,,"inconclusive: 15.8 µM [quencher, side channel, partial curve]"
CCOc1ccc(NC(=O)CCC(=O)NNS(=O)(=O)c2ccccc2[N+](=O)[O-])cc1,,"inconclusive: 17.8 µM [quencher, side channel, single point]"
COCCNC(=O)C(c1ccco1)N(C(=O)Cn1nnc2ccccc21)c1ccccc1C (stereo not given),inactive: -2.96%,
CN(C(=O)C1CCCN(c2ncnc3c2nc2n3CCCCC2)C1)c1cccc(Cl)c1 (stereo not given),inactive: 0.0543%,
Cn1c(O)c(N=NC(=O)c2ccccc2O)c2ccccc21,,"inconclusive: 12.6 µM [quencher, side channel, partial curve]"
O=c1[nH]n(-c2ccc(Cl)cc2)c(=O)c(Cl)c1Cl,,"inconclusive: 17.8 µM [quencher, side channel, partial curve]"
COc1cccc(CC(NC(C)=O)C(=O)NC2CCN(c3nc(C)cc(C)c3C#N)CC2)c1 (stereo not given),inactive: 3.41%,
Cc1cccc(-n2ncc3c2CCCC3NC(=O)Cc2c(C)noc2C)c1C (stereo not given),inactive: 1.75%,
O=C(COC(=O)c1cc(=O)[nH]c2ccccc12)c1cccs1,,"inconclusive: 7.94 µM [quencher, side channel, partial curve]"
CCn1cc(C(=O)N[C@@H](CCSC)C(=O)NCCCN2CCOCC2)c(=O)c2cc3c(cc21)OCO3,inactive: -15.1%,
OCCN=c1cc(-c2ccccc2)oc2ccc(Cl)cc12,,"inconclusive: 12.6 µM [quencher, side channel, partial curve]"
O=[N+]([O-])c1c(-c2cn[nH]c2)n[nH]c1-c1cn[nH]c1,,"inconclusive: 15.8 µM [quencher, side channel, partial curve]"
O=c1[nH]c(/C(=N\O)c2ccccc2)no1,,"inconclusive: 14.1 µM [quencher, side channel, partial curve]"
COc1ccc(-c2csc3nc(-c4ccccc4OC)oc(=O)c23)cc1,inactive: 17.8%,
CCOc1ccc(NC(=O)CNC(=O)c2ccc(OC)c(OC)c2)cc1,inactive: -5.2%,
CCOc1ccc(-c2nc[nH]c2[N+](=O)[O-])cc1,,"inconclusive: 3.16 µM [quencher, full curve, poor fit]"
Cc1ccc2c(CC(=O)NC3CCCc4ccccc43)coc2c1 (stereo not given),,"inconclusive: 0.355 µM [fluorescent, side channel, partial curve]"
Cc1cc(C)cc(N=c2c([N+](=O)[O-])nn(-c3ccc4c(c3)OCCO4)n2O)c1,,"inconclusive: 10 µM [quencher, side channel, partial curve]"
COc1ccccc1/C=C/c1nc(S(=O)(=O)c2ccccc2)c(N2CCC(C(N)=O)CC2)o1,,"inconclusive: 25.1 µM [quencher, side channel, partial curve]"
